From PMC4336329 (PLoS ONE, 2015)
Screen size: about 310,000 compounds; about 2,200 (0.71%) showed an effect of 50% or more. The effect is printed as a negative number. The list shows a part of the results.

target: human ether-à-go-go-related gene (hERG) potassium channel (human, UniProt Q12809); assay: primary screen, population patch clamp on CHO cells stably expressing hERG
Sequence (Q12809 whole entry, looked up): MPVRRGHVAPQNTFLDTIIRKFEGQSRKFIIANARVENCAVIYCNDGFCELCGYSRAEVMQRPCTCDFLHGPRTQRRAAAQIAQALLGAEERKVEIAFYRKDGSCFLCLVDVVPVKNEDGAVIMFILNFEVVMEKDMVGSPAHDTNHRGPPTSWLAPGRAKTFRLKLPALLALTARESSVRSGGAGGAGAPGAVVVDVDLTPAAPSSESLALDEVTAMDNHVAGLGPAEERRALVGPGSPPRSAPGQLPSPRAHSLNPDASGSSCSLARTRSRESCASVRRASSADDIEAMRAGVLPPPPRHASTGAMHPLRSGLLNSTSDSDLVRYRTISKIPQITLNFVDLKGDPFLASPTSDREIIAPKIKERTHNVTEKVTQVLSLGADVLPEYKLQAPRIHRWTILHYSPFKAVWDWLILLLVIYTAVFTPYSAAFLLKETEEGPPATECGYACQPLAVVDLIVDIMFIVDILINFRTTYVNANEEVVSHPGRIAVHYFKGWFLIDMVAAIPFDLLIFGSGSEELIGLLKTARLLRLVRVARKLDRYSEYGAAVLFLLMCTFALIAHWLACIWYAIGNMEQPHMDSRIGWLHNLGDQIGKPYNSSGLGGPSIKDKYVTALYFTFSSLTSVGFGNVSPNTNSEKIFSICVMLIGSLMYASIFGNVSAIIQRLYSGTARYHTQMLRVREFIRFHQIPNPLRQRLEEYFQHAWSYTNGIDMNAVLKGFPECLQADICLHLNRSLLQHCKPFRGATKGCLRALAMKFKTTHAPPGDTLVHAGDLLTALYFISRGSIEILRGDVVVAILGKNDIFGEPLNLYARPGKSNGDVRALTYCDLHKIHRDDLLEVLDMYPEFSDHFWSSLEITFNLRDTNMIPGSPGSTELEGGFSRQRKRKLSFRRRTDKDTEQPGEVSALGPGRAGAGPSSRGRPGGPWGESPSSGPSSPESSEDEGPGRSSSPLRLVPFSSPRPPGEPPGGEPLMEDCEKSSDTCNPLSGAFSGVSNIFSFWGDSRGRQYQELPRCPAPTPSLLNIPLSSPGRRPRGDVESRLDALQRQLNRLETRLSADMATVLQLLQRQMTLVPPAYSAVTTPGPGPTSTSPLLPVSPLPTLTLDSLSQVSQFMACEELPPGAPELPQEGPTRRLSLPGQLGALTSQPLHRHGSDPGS

Row | Structure (SMILES) | hERG current change (%, negative = inhibition) at 1uM
1 | COc1ccccc1/C=N/NC(=O)c1cccc(NC(=O)c2ccccc2Cl)c1 | 7.87%
2 | CCn1c(CN2CCOCC2)nnc1SCC(=O)Nc1ccc(C)cc1 | 12.5%
3 | O=C1/C(=C/c2ccccc2F)SC(=S)N1CC(=O)N1CCCCC1c1cccnc1 (stereo not drawn) | 17.9%
4 | CC12CCC(=O)N1C(C(=O)NCc1ccccc1Cl)CS2 (stereo not drawn) | 4.86%
5 | Cn1nc(C(F)(F)F)c(C(=O)Nc2ccc(F)cc2F)c1Cl | 9.99%
6 | Cc1ccc(S(=O)(=O)N2CCOCC2)cc1C(=O)NCc1ccc(F)cc1 | 4.96%
7 | Cc1nc(C(F)(F)F)c(C(=O)N=CN(C)C)s1 | 15.2%
8 | C(=N\Nc1nc2ccccc2s1)/c1ccc2c(c1)OCO2 | 8.13%
9 | OCCC1CN(CC2CCCCC2)CCN1C1CCCC1 (stereo not drawn) | 10.1%
10 | Cc1ccc(N(C(=O)C2CCC(=O)N2)C2(C(=O)NC3CCCC3)CCCCC2)cc1 (stereo not drawn) | 3.56%
11 | CNC(=O)COC(=O)/C=C/c1nc2ccccc2s1 | 12.1%
12 | Cl.NC1(C(=O)O)CC1 | 17.9%
13 | COc1ccc(/C=N/NC(=O)c2ccccc2O)cc1CN1CCOCC1 | 4.04%
14 | Cc1csc(C(=O)NN)c1N(C)C | 15.2%
15 | O=C(NCC(=O)N1CCN(C(=O)c2ccccc2)CC1)c1ccccc1 | 10.1%
16 | O=c1c2ccccc2nc(-c2ccccc2)n1-c1cccc(O)c1 | 11.8%
17 | O=C(O)C(=O)O.O=C(c1cccc2ccccc12)N1CCN(CC2CC=CCC2)CC1 (stereo not drawn) | 14.1%
18 | COC(=O)c1ccc(NC(=S)NC(=O)c2c(Cl)cnn2C)cc1 | 16%
19 | COc1cccc(CN2CC(C(=O)N3CCCC3)CCC2=O)c1 (stereo not drawn) | 10.9%
20 | O=C(O)c1ccc(C[n+]2c(-c3ccccc3)csc2Nc2ccccc2)cc1.[Br-] | 8.98%
21 | O=C1NC2(CCCc3ccccc32)C(=O)N1Cc1nnc(-c2ccccc2Br)o1 (stereo not drawn) | 8.8%
22 | CC(C)Sc1nc(N)nc(-c2cccs2)c1C#N | 7.1%
23 | O=C(NCc1ccccc1)c1ccc(N2CCC3(CC2)CC(c2ccc(Cl)cc2)=NO3)c([N+](=O)[O-])c1 | 9.36%

Row | Structure (SMILES) | hERG current change (%, negative = inhibition) at 1uM
24 | O=C(CCN1C(=O)c2ccccc2C1=O)NCCN1CCOCC1 | 13.7%
25 | CC(C)c1ccc(NC(=O)C2CCCCN2S(=O)(=O)c2ccccc2)cc1 (stereo not drawn) | -3.19%
26 | O=S(=O)(NCc1ccccn1)c1cccc2nsnc12 | 10.3%
27 | CCOC(=O)c1c(N)sc(C(=O)N2CCCC(C(N)=O)C2)c1C (stereo not drawn) | 9.64%
28 | N#Cc1c(-n2cccc2/C=N/O)sc2c1CCCC2 | 1.01%
29 | Cc1ccccc1NC(=O)C1C2CC/C=C\CCC21 (stereo not drawn) | 27.7%
30 | Cc1occc1-c1nnc(SCC(=O)Nc2ccccn2)o1 | 11.8%
31 | COc1ccc(-c2nn(-c3ccccc3)cc2/C=C(\CC(=O)O)c2nc3ccccc3s2)cc1OC | 13.1%
32 | CC(C)Oc1ccc(CCc2n[nH]c(=S)n2-c2ccccc2)cc1 | 13.2%
33 | CCc1ccc(CCOc2ccc(CC3SC(=O)NC3=O)cc2)nc1.Cl (stereo not drawn) | 9.07%
34 | COc1ccc(NC(=O)c2cc(-c3ccc(OC)c(OC)c3)on2)cc1OC | 2.21%
35 | CCCc1ccc(C(=O)COC(=O)CN2C(=O)NC3(CCCCC3C)C2=O)cc1 (stereo not drawn) | 7.8%
36 | O=C(O)CC/C(=C\c1cc2c(cc1Br)OCO2)c1nc2ccccc2s1 | 9.4%
37 | CSc1nc(Oc2ccc(=O)[nH]n2)nc(N(C)C)n1 | 17.9%
38 | O=C1OC(N2C(=O)CC[C@H]2C(=O)Nc2cccc(F)c2)c2ccccc21 (stereo partly drawn) | 11.1%
39 | COC(=O)NCC(c1ccc2c(c1)OCO2)N1CCN(c2ccccc2)CC1 (stereo not drawn) | -0.766%
40 | O=C(CNc1cccc(S(=O)(=O)N2CCCCC2)c1)Nc1cccc(F)c1 | 11.7%
41 | CCc1ccc(NC(=S)N(CCN2CCOCC2)Cc2ccccc2F)cc1 | 4.52%
42 | COc1cc(/C=N/NC(=O)c2ccc(Cl)c(S(N)(=O)=O)c2)ccc1OCC(N)=O | 10.3%
43 | COCCCNCCOc1ccc(C)cc1[N+](=O)[O-].O=C(O)C(=O)O | 5.62%
44 | CCOC(=O)C1CCCN(CC(=O)Nc2c(F)c(F)c(F)c(F)c2F)C1 (stereo not drawn) | 4.79%
45 | CC1CCN(c2nc3ccc(C(=O)O)cc3s2)CC1 | 20.8%
46 | COc1cccc(/C=C2\N=C3CCCCCN3C2=O)c1 | 5.03%

Row | Structure (SMILES) | hERG current change (%, negative = inhibition) at 1uM
47 | O=C(NCc1ccco1)c1nc(-c2ccc(F)cc2)no1 | 2.36%
48 | Cc1cc(C(=O)O)c(C)n1-c1ccccc1 | 7.19%
49 | COC(=O)Cc1c(C)c2ccc(OC3CCCCC3=O)c(C)c2oc1=O (stereo not drawn) | 5.45%
50 | CN(C)S(=O)(=O)c1cccc(NC(=O)COC(=O)/C=C/c2ccco2)c1 | 6.72%
51 | Cc1ccc(C(=O)C[n+]2cccc3cc(C)ccc32)cc1.[Br-] | 3.46%
52 | CCOc1ccccc1N=CC1=C(O)CC(c2ccccc2)CC1=O (stereo not drawn) | 9.27%
53 | S=C(NCCc1ccccc1)NCc1ccccc1Cl | 8.67%
54 | Cc1ccc(OCC(=O)NC(=S)Nc2cccc(NC(=O)c3ccc(Cl)cc3Cl)c2)cc1 | 25.9%
55 | Cc1ccc(O)c(C(=O)c2cc(C(=O)NCCc3ccccc3)c(=O)n(CCc3ccccc3)c2)c1 | 11.4%
56 | CCOc1ccc(N2C(=O)CC(Sc3nc4ccc(OCC)cc4s3)C2=O)cc1 (stereo not drawn) | 13.6%
57 | CC(=O)Nc1ccccc1-c1ccc(C)o1 | 14.4%
58 | COc1ccc(CCNC(=O)c2cc3c(=O)n4cccc(C)c4nc3n(CC3CCCO3)c2=N)cc1 (stereo not drawn) | -79.4%
59 | CC(C)(C)Cc1nnc(NC(=O)c2ccco2)s1 | 13.6%
60 | CCOc1cc(/C=N/NC(=O)CSc2cccc3cccnc23)ccc1O | 13%
61 | COc1ccccc1/C=N/NC(=O)c1ccc(CN2C(=O)c3cccc4cccc2c34)cc1 | 6.16%
62 | Cc1ccc2nc(SCC(=O)NC3CCCC3)[nH]c2c1 | 9.65%
63 | CC(OC(=O)c1ccc(Br)c(S(=O)(=O)N2CCOCC2)c1)C(=O)NC1CCCCC1C (stereo not drawn) | 2.4%
64 | c1coc(CNc2nc(-c3cccs3)cs2)c1 | 7.14%
65 | NC(N)=N/N=C/c1cccc(Cl)c1Cl | -5.72%
66 | NC(=O)COC(=O)c1ccc(NS(=O)(=O)c2ccc3c(c2)OCCO3)cc1 | 0.98%
67 | Cc1ccc(S(=O)(=O)Nc2ccccc2C=Nc2cccc(C)c2C)cc1 | 2.89%
68 | COc1ccccc1NC(=S)NNC(=O)c1ccccc1 | 2.82%
69 | O=C1CSC(=Nc2cccc(Cl)c2Cl)N1 | 14.8%

Row | Structure (SMILES) | hERG current change (%, negative = inhibition) at 1uM
70 | CSc1ccc(S(=O)(=O)Nc2ccc3c4c(cccc24)CC3)cc1 | 2.08%
71 | CCOC(=O)N1CCC(=NNC(N)=O)CC1 | 14.1%
72 | Cc1cccc(OCC(=O)N2CCN(C(=O)c3ccco3)CC2)c1 | -2.44%
73 | Cc1c(Cl)cccc1NC(=O)CSC(C)c1nc2ccccc2c(=O)[nH]1 (stereo not drawn) | 12.9%
74 | CCOc1ccc(C(C)(C)C)cc1S(=O)(=O)N1CC(C)OC(C)C1 (stereo not drawn) | 10.6%
75 | CCCOc1ccc(N2C(=O)CC(N(CCc3ccc(OC)c(OC)c3)C(=O)c3ccccc3)C2=O)cc1 (stereo not drawn) | -37.5%
76 | COc1ccc(N2CCN(CCCNC(=O)Cn3c(=O)c4cccn4c4cccnc43)CC2)cc1 | -26.5%
77 | CCCc1nc(SCC(=O)O)c2sc(=S)n(-c3ccccc3)c2n1 | 10.8%
78 | O=C(NN(c1ccccc1)c1ccccc1)c1ccc([N+](=O)[O-])o1 | 8.87%
79 | O=C(CCC(=O)N1CCN(c2ccccc2F)CC1)c1ccc(F)cc1 | -1.97%
80 | Cc1ccc(COC(=O)c2cc([N+](=O)[O-])ccc2N2CCOCC2)cc1 | -21%
81 | CC(=O)c1cnc(SCC(=O)O)nc1C | 16%
82 | COc1ccc(NC(=O)c2ccc(S(=O)(=O)N3CCCCCC3)cc2)c(OC)c1 | 5.1%
83 | CCN1/C(=C\C=C(C(C)=O)C(C)=O)Sc2ccccc21 | 20.4%
84 | CCO[C@H]1OC(C(=O)N2CCOCC2)=C[C@@H](C)[C@@H]1CCCO | 13.3%
85 | CCOC(=O)C1CCCN(c2nc3ccccc3nc2C(C#N)C(=O)OC(C)COC)C1 (stereo not drawn) | 9.3%
86 | COc1cc(Cl)c(NS(=O)(=O)c2cc3[nH]c(=O)c(=O)[nH]c3cc2C)c(OC)c1 | 7.29%
87 | Cc1c(C(=O)N2CCC(C)CC2)cccc1[N+](=O)[O-] | 0.407%
88 | Cc1ccc(C2(C)NC(=O)N(CC(=O)NNC(=O)c3ccccc3F)C2=O)cc1 (stereo not drawn) | -1.89%
89 | CC1CCCC(NC(=O)COC(=O)Cc2ccc(Br)cc2)C1C (stereo not drawn) | 12.3%
90 | COc1ccc(-n2cc(CNC(C)c3ccncn3)c(-c3cccc(F)c3)n2)cc1 (stereo not drawn) | -3.56%
